Data as given in the supplement of paper PMC9446081.
Out of some 39,000 compounds screened, about 220 (0.56%) showed activity. The list shows a part of the results.

These compounds were tested on Escherichia coli K-12 BW25113 (assay: relative growth (OD600 normalised to plate interquartile mean) (fraction); higher = less growth inhibition, active = 0.2 or less). Details: 50 µM; LB; incubation time: overnight (16-24 h).
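Note: static incubation at 37 °C against the wild-type strain, values averaged over two biological replicates.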

| Structure (SMILES) | relative growth |
| --- | --- |
| C[C@@H]1CN([C@H](C)CO)C(=O)c2cccc(NS(=O)(=O)c3ccc(Cl)cc3)c2O[C@@H]1CN(C)Cc1ccc(Cl)c(Cl)c1 | inactive: 1.02 |
| CC(C)CC(N)=O | inactive: 1.08 |
| C[C@@H]1CN([C@@H](C)CO)C(=O)Cc2cc(NC(=O)Cc3cn(C)c4ccccc34)ccc2O[C@H]1CN(C)C(=O)Nc1ccc(C(F)(F)F)cc1 | inactive: 0.965 |
| COc1ccc(S(=O)(=O)N(C)C[C@H]2Oc3c(NS(C)(=O)=O)cccc3C(=O)N([C@@H](C)CO)C[C@@H]2C)cc1 | inactive: 0.991 |
| CC(C)NC(=O)N(C)C[C@@H]1OCCCC[C@H](C)Oc2ccc(NC(=O)Nc3cccc4ccccc34)cc2C(=O)N([C@H](C)CO)C[C@@H]1C | inactive: 0.946 |
| C[C@H]1CCCCO[C@@H](CN(C)C(=O)c2ccccc2)[C@@H](C)CN([C@@H](C)CO)C(=O)c2cc(NS(=O)(=O)c3ccccc3)ccc2O1 | inactive: 1.01 |
| COc1c2occc2cc2ccc(=O)oc12 | inactive: 0.905 |
| Cc1noc(C)c1NC(=O)Nc1ccc2c(c1)C(=O)N([C@@H](C)CO)C[C@H](C)[C@H](CN(C)Cc1ccc3c(c1)OCO3)OCCCC[C@H](C)O2 | inactive: 0.914 |
| OCCN1C[C@@H](O)[C@@H](O)[C@@H](O)[C@@H]1CO | inactive: 1.02 |
| C[C@H](CO)N1C[C@H](C)[C@H](CN(C)S(=O)(=O)c2cn(C)cn2)OCCCC[C@H](C)Oc2ccc(NS(=O)(=O)c3cccs3)cc2C1=O | inactive: 1.01 |
| Cc1noc(C)c1NC(=O)Nc1ccc2c(c1)C(=O)N([C@H](C)CO)C[C@H](C)[C@@H](CN(C)Cc1ccc(C(=O)O)cc1)OCCCC[C@H](C)O2 | inactive: 0.973 |
| C[C@H]1CN([C@@H](C)CO)C(=O)Cc2cc(NS(=O)(=O)c3ccc(Cl)cc3)ccc2O[C@@H]1CN(C)C(=O)Nc1ccc(C(F)(F)F)cc1 | inactive: 0.972 |
| CC(C)NC(=O)N(C)C[C@@H]1OCCCC[C@@H](C)Oc2ccc(NS(C)(=O)=O)cc2C(=O)N([C@H](C)CO)C[C@@H]1C | inactive: 0.982 |
| C[C@@H]1CCCCO[C@@H](CN(C)C(=O)Nc2ccccc2)[C@H](C)CN([C@@H](C)CO)C(=O)c2cc(NC(=O)CCC(F)(F)F)ccc2O1 | inactive: 0.999 |
| C[C@@H]1CCCCO[C@H](CN(C)C(=O)Cc2ccccc2)[C@@H](C)CN([C@@H](C)CO)C(=O)c2cc(NC(=O)Nc3ccc4c(c3)OCO4)ccc2O1 | inactive: 0.998 |
| C[C@H]1CN([C@@H](C)CO)S(=O)(=O)c2ccc(Br)cc2O[C@H]1CN(C)CC1CCOCC1 | inactive: 0.99 |
